# Assay results as given in the supplement of paper PMC8728848.
# Some of the results follow.
# Assays:
# Experiment in all cases: glycan array binding signal (z-score within array); higher = stronger binding
# Conditions in all cases: glycan notation: IUPAC condensed, linker removed
# Kdn(a2-3)Gal(b1-4)Glc = molecular target: Kdn(a2-3)Gal(b1-4)Glc
# Procedure, shortened: (§1)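 Negative Z-scores can be read as non-binding. The Z-score is calculated within each array and then averaged across arrays of one protein sequence at different concentrations or buffers and across linkers. Arrays, 3228 in all, were curated from the Consortium for Functional Glycomics database and kept only where the protein sequence was available.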
# Kdn(a2-3)Gal(b1-4)GlcNAc = molecular target: Kdn(a2-3)Gal(b1-4)GlcNAc
# Procedure, shortened: as §1
# [1] = molecular target: Kdn(a2-3)Gal(b1-4)[Fuc(a1-3)]GlcNAc
# Procedure, shortened: as §1
# Kdn(a2-6)Gal(b1-4)GlcNAc = molecular target: Kdn(a2-6)Gal(b1-4)GlcNAc
# Procedure, shortened: as §1
# [2] = molecular target: Man(a1-2)Man(a1-2)Man(a1-3)Man
# Procedure, shortened: as §1
# [3] = molecular target: Man(a1-2)Man(a1-2)Man(a1-6)[Man(a1-3)]Man
# Procedure, shortened: as §1
# Man(a1-2)Man(a1-3)Man = molecular target: Man(a1-2)Man(a1-3)Man
# Procedure, shortened: as §1
# [4] = molecular target: Man(a1-2)Man(a1-3)[Man(a1-2)Man(a1-6)]Man
# Procedure, shortened: as §1
# [5] = molecular target: Man(a1-2)Man(a1-3)[Man(a1-2)Man(a1-6)]Man(a1-6)[Man(a1-2)Man(a1-2)Man(a1-3)]Man
# Procedure, shortened: as §1
# [6] = molecular target: Man(a1-2)Man(a1-3)[Man(a1-2)Man(a1-6)]Man(a1-6)[Man(a1-2)Man(a1-2)Man(a1-3)]Man(b1-4)GlcNAc(b1-4)GlcNAc
# Procedure, shortened: as §1
# [7] = molecular target: Man(a1-2)Man(a1-3)[Man(a1-6)]Man(a1-6)[Man(a1-2)Man(a1-3)]Man(b1-4)GlcNAc(b1-4)GlcNAc
# Procedure, shortened: as §1
# [8] = molecular target: Man(a1-2)Man(a1-6)[Man(a1-3)]Man(a1-6)[Man(a1-2)Man(a1-2)Man(a1-3)]Man
# Procedure, shortened: as §1
# [9] = molecular target: Man(a1-2)Man(a1-6)[Man(a1-3)]Man(a1-6)[Man(a1-2)Man(a1-2)Man(a1-3)]Man(b1-4)GlcNAc(b1-4)GlcNAc
# Procedure, shortened: as §1
# Man(a1-3)[Man(a1-6)]Man = molecular target: Man(a1-3)[Man(a1-6)]Man
# Procedure, shortened: as §1
# [10] = molecular target: Man(a1-3)[Man(a1-6)]Man(a1-6)[Man(a1-2)Man(a1-3)]Man(b1-4)GlcNAc(b1-4)GlcNAc
# Procedure, shortened: as §1
# [11] = molecular target: Man(a1-3)[Man(a1-6)]Man(a1-6)[Man(a1-3)]Man
# Procedure, shortened: as §1
# [12] = molecular target: Man(a1-3)[Man(a1-6)]Man(a1-6)[Man(a1-3)]Man(b1-4)GlcNAc(b1-4)GlcNAc
# Procedure, shortened: as §1
# [13] = molecular target: Man(a1-3)[Man(a1-6)]Man(b1-4)GlcNAc(b1-4)GlcNAc
# Procedure, shortened: as §1
# [14] = molecular target: Man(a1-3)[Man(a1-6)]Man(b1-4)GlcNAc(b1-4)[Fuc(a1-6)]GlcNAc
# Procedure, shortened: as §1
# Man(a1-6)Man = molecular target: Man(a1-6)Man
# Procedure, shortened: as §1
# Man(b1-4)GlcNAc = molecular target: Man(b1-4)GlcNAc
# Procedure, shortened: as §1
# MurNAc(b1-4)GlcNAc = molecular target: MurNAc(b1-4)GlcNAc
# Procedure, shortened: as §1
# Neu5Ac(a2-3)Gal = molecular target: Neu5Ac(a2-3)Gal
# Procedure, shortened: as §1
# [15] = molecular target: Neu5Ac(a2-3)Gal(b1-3)GalNAc
# Procedure, shortened: as §1
# [16] = molecular target: Neu5Ac(a2-3)Gal(b1-3)GalNAc(b1-3)Gal(a1-4)Gal(b1-4)Glc
# Procedure, shortened: as §1
# [17] = molecular target: Neu5Ac(a2-3)Gal(b1-3)GalNAc(b1-4)[Neu5Ac(a2-3)]Gal(b1-4)Glc
# Procedure, shortened: as §1
# [18] = molecular target: Neu5Ac(a2-3)Gal(b1-3)GalNAc(b1-4)[Neu5Ac(a2-8)Neu5Ac(a2-3)]Gal(b1-4)Glc
# Procedure, shortened: as §1
# [19] = molecular target: Neu5Ac(a2-3)Gal(b1-3)GalNAc6S
# Procedure, shortened: as §1
# [20] = molecular target: Neu5Ac(a2-3)Gal(b1-3)GlcNAc
# Procedure, shortened: as §1
# [21] = molecular target: Neu5Ac(a2-3)Gal(b1-3)GlcNAc(b1-2)Man
# Procedure, shortened: as §1
# [22] = molecular target: Neu5Ac(a2-3)Gal(b1-3)GlcNAc(b1-2)Man(a1-3)[GlcNAc(b1-4)][Neu5Ac(a2-3)Gal(b1-3)GlcNAc(b1-2)Man(a1-6)]Man(b1-4)GlcNAc(b1-4)GlcNAc
# Procedure, shortened: as §1
# [23] = molecular target: Neu5Ac(a2-3)Gal(b1-3)GlcNAc(b1-2)Man(a1-3)[Neu5Ac(a2-3)Gal(b1-3)GlcNAc(b1-2)Man(a1-6)]Man(b1-4)GlcNAc(b1-4)GlcNAc
# Procedure, shortened: as §1
# [24] = molecular target: Neu5Ac(a2-3)Gal(b1-3)GlcNAc(b1-3)Gal(b1-3)GlcNAc
# Procedure, shortened: as §1
# [25] = molecular target: Neu5Ac(a2-3)Gal(b1-3)GlcNAc(b1-3)Gal(b1-4)GlcNAc
# Procedure, shortened: as §1
# [26] = molecular target: Neu5Ac(a2-3)Gal(b1-3)GlcNAc(b1-3)GalNAc
# Procedure, shortened: as §1
# [27] = molecular target: Neu5Ac(a2-3)Gal(b1-3)GlcNAc(b1-4)Gal(b1-4)Glc
# Procedure, shortened: as §1
# [28] = molecular target: Neu5Ac(a2-3)Gal(b1-3)GlcNAc(b1-6)GalNAc
# Procedure, shortened: as §1
# [29] = molecular target: Neu5Ac(a2-3)Gal(b1-3)GlcNAc6S
# Procedure, shortened: as §1
binder,measurement,setting,value
Cohesin-mDC-ASGPR (Macaca mulatta) (protein) LDITSHHHHHHDDLDAVRIKVDTVNAKPGDTVRIPVRFSGIPSKGIANCDFVYSYDPNVLEIIEIEPGDIIVDPNPDKSFDTAVYPDRKIIVFLFAEDSGTGAYAITKDGVFATIVAKVKEGAPNGLSVIKFVEVGGFANNDLVEQKTQFFDGGVNVGDTTEPATPTTPVTTPTTTDDLDAASSQNSKFQRDLVTLRTDFSNFTSNTVAEIQALTSQGSSVEEMIASLKAEVEVIKQEQQAVHSEMLLRVQRLMQDLNKLTCQVATLKNNASTERTCCPVNWVEHQDSCYWFSRSGMPWAEAEKHCQLENAHLVVINSREEQNFVQEHLSFAYTWMGLSDREGAWKWVDGTDYETGFQNWKPGQPDDWQGHGLGGGEDCAHFHPDGRWNDDVCQRPYYWVCEAGLTQASQESH,glycan array binding signal (z-score),Kdn(a2-3)Gal(b1-4)Glc,-0.397
same,glycan array binding signal (z-score),Kdn(a2-3)Gal(b1-4)GlcNAc,-0.426
same,glycan array binding signal (z-score),[1],-0.378
same,glycan array binding signal (z-score),Kdn(a2-6)Gal(b1-4)GlcNAc,-0.387
same,glycan array binding signal (z-score),[2],0.068
same,glycan array binding signal (z-score),[3],-0.399
same,glycan array binding signal (z-score),Man(a1-2)Man(a1-3)Man,-0.366
same,glycan array binding signal (z-score),[4],-0.414
same,glycan array binding signal (z-score),[5],-0.409
same,glycan array binding signal (z-score),[6],-0.332
same,glycan array binding signal (z-score),[7],-0.403
same,glycan array binding signal (z-score),[8],-0.372
same,glycan array binding signal (z-score),[9],-0.407
same,glycan array binding signal (z-score),Man(a1-3)[Man(a1-6)]Man,-0.397
same,glycan array binding signal (z-score),[10],-0.326
same,glycan array binding signal (z-score),[11],-0.405
same,glycan array binding signal (z-score),[12],-0.403
same,glycan array binding signal (z-score),[13],-0.408
same,glycan array binding signal (z-score),[14],-0.432
same,glycan array binding signal (z-score),Man(a1-6)Man,-0.297
same,glycan array binding signal (z-score),Man(b1-4)GlcNAc,-0.376
same,glycan array binding signal (z-score),MurNAc(b1-4)GlcNAc,-0.419
same,glycan array binding signal (z-score),Neu5Ac(a2-3)Gal,-0.373
same,glycan array binding signal (z-score),[15],-0.406
same,glycan array binding signal (z-score),[16],-0.36
same,glycan array binding signal (z-score),[17],-0.356
same,glycan array binding signal (z-score),[18],-0.113
same,glycan array binding signal (z-score),[19],-0.315
same,glycan array binding signal (z-score),[20],-0.412
same,glycan array binding signal (z-score),[21],-0.342
same,glycan array binding signal (z-score),[22],-0.427
same,glycan array binding signal (z-score),[23],-0.354
same,glycan array binding signal (z-score),[24],-0.384
same,glycan array binding signal (z-score),[25],-0.42
same,glycan array binding signal (z-score),[26],-0.387
same,glycan array binding signal (z-score),[27],-0.361
same,glycan array binding signal (z-score),[28],3.56
same,glycan array binding signal (z-score),[29],-0.414
